Assay results as given in paper PMC3834829.
Results are given in words; binding and its absence hold for the method and conditions named. Some results given as binding are weak or reduced against the parent protein; the word gives no strength.

How the values were obtained:
Test in all cases: two-hybrid; S. cerevisiae L40; LexA DBD fusion with VP16 AAD-NR fusion; β-galactosidase activity in cell-free extracts; vehicle only or no ligand
[1] = target: T1, LexA-BCL11A-(651–670) (UniProt Q9H165)
T1 sequence: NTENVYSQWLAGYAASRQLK

[2] = target: T2, LexA-BCL11A-(212–376) (UniProt Q9H165)
T2 sequence: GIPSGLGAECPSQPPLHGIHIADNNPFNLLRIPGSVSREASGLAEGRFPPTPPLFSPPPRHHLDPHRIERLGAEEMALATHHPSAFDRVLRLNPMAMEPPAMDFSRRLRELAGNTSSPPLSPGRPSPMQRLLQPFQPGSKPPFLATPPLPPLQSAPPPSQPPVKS

[3] = target: T3, LexA-BCL11A RID2 W659A (UniProt Q9H165)
T3 sequence: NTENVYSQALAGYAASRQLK

[4] = target: T4, LexA-BCL11A RID2 Q658A (UniProt Q9H165)
T4 sequence: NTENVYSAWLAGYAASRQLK

[5] = target: T5, LexA-BCL11A RID2 G662A (UniProt Q9H165)
T5 sequence: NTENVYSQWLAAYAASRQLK

[6] = target: T6, LexA-BCL11A RID2 Y656A (UniProt Q9H165)
T6 sequence: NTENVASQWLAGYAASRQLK

[7] = target: T7, LexA-BCL11A RID2 Y663A (UniProt Q9H165)
T7 sequence: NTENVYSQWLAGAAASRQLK

[8] = target: T8, LexA-BCL11A RID2 S657A (UniProt Q9H165)
T8 sequence: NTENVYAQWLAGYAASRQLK

[9] = target: T9, LexA-BCL11A-(594–707) (UniProt Q9H165)
T9 sequence: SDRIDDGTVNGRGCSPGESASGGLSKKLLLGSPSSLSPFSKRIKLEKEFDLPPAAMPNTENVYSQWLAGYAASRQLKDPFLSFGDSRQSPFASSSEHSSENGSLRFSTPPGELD

[10] = target: T10, LexA-BCL11A RID2 V655A (UniProt Q9H165)
T10 sequence: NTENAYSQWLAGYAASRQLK

[11] = target: T11, LexA-BCL11A-(310–325) (UniProt Q9H165)
T11 sequence: PPAMDFSRRLRELAGN

[12] = target: T12, LexA-BCL11A RID2 L660A (UniProt Q9H165)
T12 sequence: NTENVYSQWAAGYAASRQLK

[13] = target: T13, LexA-COUP-TFII-LBD-(144–414) (UniProt P24468)
T13 sequence: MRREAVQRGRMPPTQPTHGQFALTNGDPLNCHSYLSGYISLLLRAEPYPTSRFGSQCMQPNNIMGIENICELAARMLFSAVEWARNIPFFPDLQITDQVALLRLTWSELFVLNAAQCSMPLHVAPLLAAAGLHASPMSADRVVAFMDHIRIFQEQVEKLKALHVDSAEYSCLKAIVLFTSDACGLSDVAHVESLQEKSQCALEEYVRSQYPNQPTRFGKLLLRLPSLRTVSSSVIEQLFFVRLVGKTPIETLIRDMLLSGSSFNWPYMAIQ

B1: AAD-COUP-TFII-LBD-(144–414) (domain or fragment, UniProt P24468 144-414)
chain: MRREAVQRGRMPPTQPTHGQFALTNGDPLNCHSYLSGYISLLLRAEPYPTSRFGSQCMQPNNIMGIENICELAARMLFSAVEWARNIPFFPDLQITDQVALLRLTWSELFVLNAAQCSMPLHVAPLLAAAGLHASPMSADRVVAFMDHIRIFQEQVEKLKALHVDSAEYSCLKAIVLFTSDACGLSDVAHVESLQEKSQCALEEYVRSQYPNQPTRFGKLLLRLPSLRTVSSSVIEQLFFVRLVGKTPIETLIRDMLLSGSSFNWPYMAIQ
[1]
  binding: binds
[2]
  binding: binds
[3]
  binding: no binding
[4]
  binding: binds
[5]
  binding: binds
[6]
  binding: no binding
[7]
  binding: no binding
[8]
  binding: no binding
[9]
  binding: binds
[10]
  binding: no binding
[11]
  binding: binds
[12]
  binding: no binding
[13]
  binding: binds
